# Measurements: ChEMBL document CHEMBL4888484, “Replenishing the malaria drug discovery pipeline: Screening and hit evaluation of the MMV Hit Generation Library 1 (HGL1) against asexual blood stage Plasmodium falciparum ,using a nano luciferase reporter read-out” (2022)
# About 540 (0.36%) of roughly 150,000 compounds showed an effect of 50% or more. The list shows a part of the results.
# Tested on: Plasmodium falciparum
# Assay: Primary screen in NF54 nanoGlo assay, in single point, at 2uM, 72h; a lower Z score goes with more inhibition
# Assay type: functional, Erythrocyte
# Settings: timepoint 72 hour
Compound,% Inhibition,Z score
CC1Nc2ncnn2C(c2cccc(O)c2)C1C(N)=O (stereo not given),-18%,2.13
C=CCN(Cc1csc(COc2cc(C)cc(C)c2C)n1)C(=O)c1ccco1,-8%,1.48
CCN(CC)S(=O)(=O)c1cccc(C(=O)OCC(=O)Nc2ccc(C(=O)Nc3ccccc3OC)cc2)c1,-8%,1.1
O=C(Nc1ccc(F)cc1F)[C@@H](F)C(F)(F)F,-10%,1.53
Cc1cc(C)n(Cc2c(C(=O)NCc3ccc(N(C)C)cc3)noc2C)n1,-13%,1.35
O=C1CCN(C(=O)CN2CCCC2=O)CCN(c2nc(C3CCCCC3)ns2)CCN1,-2%,0.24
O=C(C1CCOC1)N1CCC1c1ccc(Cl)cc1 (stereo not given),26%,-2.93
COc1ccccc1N1CCN(c2ccc(-c3nc(-c4ccccc4)no3)nn2)CC1,0%,-0.08
CCCCn1nc(Cn2cncn2)nc1C[C@@H]1NC(=O)c2ccccc21,-8%,1.2
C[C@H](OC(=O)c1cccc(C(N)=O)c1)C1CC1,-9%,1.47
CN1CC[C@H](c2nc3cc(F)ccc3[nH]2)C1,-1%,0.12
CCC(=O)N[C@@H]1c2ccccc2C2(CCN(C(=O)c3ccoc3)CC2)[C@H]1OCCOC,8%,-1.08
Cc1ccccc1[C@@]1(CC(=O)NCCc2cnn(C)c2)CCOC(C)(C)C1,-15%,1.54
O=C1CN(C(=O)Nc2cnn(CCF)c2)[C@H](c2ccccc2)CN1,-3%,0.52
Cc1ccc(C2C(C)CCCN2CC(O)CN2C(=O)CCC2=O)cc1 (stereo not given),-12%,1.03
O=C(c1cc2c(s1)CCCC2)N1CCC[C@H]1c1ccc2c(c1)OCCCO2,-10%,1.15
O=C(CCn1cncn1)N1CCN(C(=O)c2ccccc2)CC1,2%,-0.27
O=C(CN1CCN(C(=O)Nc2ccc(Cl)cc2)CC1=O)N1CCN(c2ccccc2F)CC1,0%,0.08
C[C@@H]1CN(C(=O)c2cc3c([nH]2)CCCC3)C[C@H](C)N1CCO,4%,-0.44
CCc1cccc(C)c1NC(=O)Cn1nc(-c2ccco2)c2sc(N3CCOCC3)nc2c1=O,4%,-0.65

Compound,% Inhibition,Z score
CCc1nn(C)c(Cl)c1CN1CCC[C@](CCCOC)(C(=O)O)C1,-4%,0.64
O=C(CN(CC(F)F)CC1CCC=CO1)NC(c1ccccc1)C1CC1 (stereo not given),-7%,0.89
COCC(=O)N1CCN(c2nc(C3CC3)nc(C)c2Cc2c(F)cccc2Cl)CC1,5%,-0.93
Cc1nc(C(=O)N2CC[S+]([O-])CC(C)C2)c(-c2ccccc2)s1 (stereo not given),-3%,0.4
Cc1nc(C(=O)N(Cc2cncs2)C2CC2)cs1,-10%,1.86
Cc1noc(C)c1CN[C@H]1CCc2nnc(-c3ccc(F)cc3)n2C1,-7%,1.36
CCc1nc(CN(CCO)Cc2ccc(F)cc2)n[nH]1,-6%,0.93
COc1ccc(-c2ccc(N3CCCN(C(=O)CN(Cc4ccco4)C(=O)c4ccc(Cl)cc4)CC3)nn2)cc1OC,-19%,2.47
Cc1cc(C)cc(-c2cc3nc(C)cc(N4CCC(C(=O)NCc5cccc(F)c5)CC4)n3n2)c1,75%,-14.36
CC(C)NC(=O)[C@@H]1C[C@H](N)CN1C(=O)CCCc1c[nH]c2ccccc12,-2%,0.24
CCCc1nnc(-c2cccnc2N2CCN(C(=O)Nc3ccccc3CC)CC2)o1,-4%,0.71
O=C1CCC2CN(Cc3cnc4ccccc4n3)CCC2N1C1CC1 (stereo not given),-8%,1.3
CC(C)c1ccc(NC(=O)Cn2cnc3c(-c4ccc(F)cc4)nsc3c2=O)cc1,-1%,0.2
COc1cc(CCNC(=O)N2CCO[C@H](c3cccc(Cl)c3)[C@H]2C)ccn1,-12%,1.39
CC[C@H](C)NC(=O)Nc1cccc(-c2noc(-c3sc(C)nc3C)n2)c1,-12%,1.23
COc1ccccc1-c1nc(Cn2nnc(-c3nc(-c4ccccn4)no3)c2C)c(C)o1,2%,-0.31
CCOc1ccc(N(CC(=O)NCCN2CCOCC2)S(C)(=O)=O)cc1,-9%,1.38
C[C@H]1CN(CCO)CCN1Cc1ccc(Cl)cc1-n1cncn1,-2%,0.24
Cc1cc(C)c(NC(=O)Cn2cc(-c3nc(-c4ccc(Cl)cc4)no3)ccc2=O)c(C)c1,1%,-0.11
CCc1ccc(CNC(=O)[C@@H]2Cn3cccc3C(=O)N2)cc1,2%,-0.28
